# “And” between values parts separate entries of the source, which are not always exact repeats. Equal values may be shown once. The inconclusive results got no clear call from the source; some entries with a clear call stand among them for comparison. Where the call is inconclusive, the potency comes from a doubtful curve fit. The source made the active and inactive calls. Calls come from the whole dose curve; as a rule, active = well fitted cell-killing curve with a large enough effect; inconclusive = small, poorly fitted or top-dose-only effect, or effect the other way; inactive = flat fitted curve, though single readings scatter.
# Legend:
# Experiment in all cases: Primary qHTS to identify gynecologic anti-cancer compounds using libraries of approved drugs and bioactive compounds (AID 1345084); note: nearly all actives have a fitted effect of over 55% in size
# Details in all cases: Gynecologic cancer cell panel viability, ATPlite luminescence, 48 h; series mostly up to 57.5 µM
# PA-1 = test system: PA-1
# Method in brief: (§1)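 Five-point cytotoxicity, 48 h drug exposure at 37 C, 5% CO2, on cells seeded 16 h beforehand. ATP content read by ATPlite luminescence.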
# SKOV3 = test system: SKOV3
# Method in brief: as §1
# Tov-21-G = test system: Tov-21-G
# Method in brief: as §1
# Tov112D = test system: Tov112D
# Method in brief: as §1
# Potency is the fitted concentration of half-maximal effect; tags give direction and shape of the fitted curve.
SMILES,Potency (PA-1),Potency (SKOV3),Potency (Tov-21-G),Potency (Tov112D)
O=c1[nH]c2ccccc2n1C1CCN(CCCC(c2ccc(F)cc2)c2ccc(F)cc2)CC1,"inconclusive: 15.8 µM [cytotoxic, single point]","inconclusive: 39.8 µM [cytotoxic, single point] and inconclusive: 17.8 µM [cytotoxic, single point]",,
NNC(=O)c1nn(Cc2ccc(Cl)cc2Cl)c2ccccc12,"inconclusive: 39.8 µM [cytotoxic, single point]","inconclusive: 10 µM [cytotoxic, partial curve, poor fit]","inconclusive: 31.6 µM [cytotoxic, single point]",
Cc1[nH]nc2ccc(-c3cncc(OC[C@@H](N)Cc4c[nH]c5ccccc45)c3)cc12,active: 0.794 µM,"inconclusive: 0.794 µM [cytotoxic, full curve, poor fit]",active: 0.708 µM,
COc1cc(CC(C)N)c(OC)cc1Br (centres undefined),"inconclusive: 100 µM [cytotoxic, single point]","inconclusive: 50.1 µM [cytotoxic, single point]","inconclusive: 70.8 µM [cytotoxic, single point]",
CCC(=O)C(CC(C)N(C)C)(c1ccccc1)c1ccccc1 (centres undefined),inactive,"inconclusive: 63.1 µM [cytotoxic, single point]",inactive,
Cc1sc2c(c1C)C(c1ccc(Cl)cc1)=N[C@@H](CC(=O)Nc1ccc(O)cc1)c1nnc(C)n1-2,"inconclusive: 2.51 µM [cytotoxic, partial curve]",active: 0.562 µM,"inconclusive: 2.82 µM [cytotoxic, partial curve, poor fit]",
CCNC(=O)C[C@@H]1N=C(c2ccc(Cl)cc2)c2cc(OC)ccc2-n2c(C)nnc21,active: 0.891 µM,"inconclusive: 15.8 µM [cytotoxic, partial curve, poor fit]","inconclusive: 22.4 µM [cytotoxic, single point]",
C[C@@H]1O[C@@H](O[C@@H]2C=C3CC[C@@H]4[C@H](CC[C@]5(C)[C@@H](c6ccc(=O)oc6)CC[C@]45O)[C@@]3(C)CC2)[C@H](O)[C@H](O)[C@H]1O,inconclusive: 0.447 µM,inconclusive: 0.0032 µM,inconclusive: 0.501 µM,inconclusive: 0.0004 µM
N#Cc1cn([C@@H]2O[C@H](CO)[C@H](O)[C@@H]2O)c2ncnc(N)c12,inconclusive: 0.1 µM,inconclusive: 6.31 µM,"inconclusive: 0.1 µM [cytotoxic, full curve, poor fit]",
CO[C@@H]1[C@@H](O)[C@@H](O[C@H]2CC[C@]3(C=O)C4CC[C@]5(C)[C@@H](C6=CC(=O)OC6)CC[C@]5(O)[C@@H]4CC[C@H]3C2)O[C@@H](C)[C@H]1O[C@@H]1O[C@H](CO[C@@H]2O[C@H](CO)[C@@H](O)[C@H](O)[C@H]2O)[C@@H](O)[C@H](O)[C@H]1O (some centres undefined),"inconclusive: 8.91 µM [cytotoxic, single point]","inconclusive: 5.01 µM [cytotoxic, partial curve, poor fit]",active: 3.55 µM,
C[C@]12CC[C@@H]3c4ccc(OC(=O)N(CCCl)CCCl)cc4CC[C@H]3[C@@H]1CC[C@@H]2O,"inconclusive: 39.8 µM [cytotoxic, single point]","inconclusive: 39.8 µM [cytotoxic, single point]","inconclusive: 39.8 µM [cytotoxic, single point]","inconclusive: 39.8 µM [cytotoxic, single point]"
C[C@]12CC[C@H](O)C[C@H]1CC[C@@H]1[C@@H]2[C@H](O)C(=O)[C@]2(C)[C@@H](c3ccc(=O)oc3)CC[C@]12O,active: 0.0794 µM,inconclusive: 0.355 µM,inconclusive: 0.02 µM,inconclusive: 0.794 µM
CC(=O)OC[C@]12C[C@H](O)C(C)=C[C@H]1O[C@@H]1[C@H](O)[C@@H](O)[C@@]2(C)[C@]12CO2,active: 2 µM,active: 3.98 µM,active: 8.91 µM,
CCC(=O)O[C@H]1CC[C@H]2[C@@H]3CCC4=CC(=O)CC[C@]4(C)[C@H]3CC[C@]12C,active: 15.8 µM,inactive,inactive,
